This is one part of the list.

The target in the assay is T1, OsWOX13 (Oryza sativa, UniProt Q5QMM3 1-267).
T1 sequence: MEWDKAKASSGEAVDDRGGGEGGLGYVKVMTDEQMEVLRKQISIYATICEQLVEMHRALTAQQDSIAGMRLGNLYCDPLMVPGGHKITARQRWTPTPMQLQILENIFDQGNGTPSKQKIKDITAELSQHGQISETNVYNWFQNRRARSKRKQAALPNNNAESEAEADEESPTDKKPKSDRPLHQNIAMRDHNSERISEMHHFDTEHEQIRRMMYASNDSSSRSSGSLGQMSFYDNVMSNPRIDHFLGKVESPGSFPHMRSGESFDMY
Description: protein-binding microarray (RPBM); PBS, 2% BSA, 51.3 ng/ul salmon testes DNA, 50 uM zinc acetate, 200 nM TF, 25 C, 1 h; high values mean tight binding. The following applies: protein: recombinant; tags: N-terminal polyhistidine and DsRed monomer fusion (pET32a); label: CyDye5-dUTP incorporated in the synthesized complementary strand; 3' TTTTT single-stranded linker to array surface; dsDNA, one strand shown. The essentials:
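A custom Agilent array was converted to double-stranded form by primer extension with Cy5-dUTP and blocked with 2% BSA. Protein at 200 nM in PBS with 2% BSA, salmon testes DNA and 50 µM zinc acetate was applied for 1 h at 25 °C, followed by washing. The proteins were polyhistidine–DsRed N-terminal fusions of transcription factors, expressed in E. coli BL21-CodonPlus and Ni–NTA-purified. The binding signal is per-feature fluorescence intensity (arbitrary units) from an Axon 4000B scanner.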
Regarding “ATTTTAATTTTAATTATTAATACTCCATTAGCATTTAGTTCGGAGTCACCTAGTGCAG”, the binding signal was 18200 fluorescence intensity (a.u.).
Turning to “TTTTGATTGGCCGAGGAGAAGGCGAAACAGACTGCCACTGCGGAGTCACCTAGTGCAG”, the binding signal was 53800 fluorescence intensity (a.u.).
For “CTTAAATTACGTACTGATGCATATAGTTATCTGCTATCATCGGAGTCACCTAGTGCAG” the value was 23500 fluorescence intensity (a.u.).
With “TACTGGTGTACAATTTATAATTAATTAAAATATGGAATCACGGAGTCACCTAGTGCAG”, the binding signal was 8120 fluorescence intensity (a.u.).
Then “GATTAACTGTGTTCTTTTCCAGCTATACATTGTACGTGTACGGAGTCACCTAGTGCAG”, with 3400 fluorescence intensity (a.u.); and “GATATGGTAATTTAGTGTCCATTATGGTGTTTCTTAATTGCGGAGTCACCTAGTGCAG”, with 6660 fluorescence intensity (a.u.); and “TACCATATATTGGGCCCCAATCTCAATAGAAGATTCTTCTCGGAGTCACCTAGTGCAG”, with 10900 fluorescence intensity (a.u.).
On to “ATGAGCTAATCATATATGATGATATTTGTTTATATTAGAACGGAGTCACCTAGTGCAG”, for which the binding signal is 7800 fluorescence intensity (a.u.).
For “GTATTGACAGCCACTCGGCCTATCCATTTTGCGTCCAATACGGAGTCACCTAGTGCAG” the value was 10700 fluorescence intensity (a.u.).
Then “TGAAATTAATGCTGCAATTTTCAGCTTTGAGCTTGCAAGCCGGAGTCACCTAGTGCAG”, with 3850 fluorescence intensity (a.u.); and “TCTAAATTGTATTTCTATATGGACTCTAGTCTCCTCTTCACGGAGTCACCTAGTGCAG”, with 14000 fluorescence intensity (a.u.).
For the sequence “TATTTTAGATTGATATACAATCTTTTGTGGTGTTAGCACTCGGAGTCACCTAGTGCAG”, the binding signal was 52900 fluorescence intensity (a.u.).
Consider “AGCGATGGTGGTGGTGGTGGTGGTGGTGGCTGGGTTGCTTCGGAGTCACCTAGTGCAG”, for which the binding signal was 7480 fluorescence intensity (a.u.).
Turning to “TTAATTGTATCCTTCAACTCTACTACTCTACGGCCATTACCGGAGTCACCTAGTGCAG”, the binding signal is 4180 fluorescence intensity (a.u.).
On to “ATATAATCATCACTATAAATAATAATTAAGATTTCCTATCCGGAGTCACCTAGTGCAG”, for which the binding signal is 10200 fluorescence intensity (a.u.).
Then “CTCCATATTAGAGATATTGATAGATATACTAGCTAGCTGCCGGAGTCACCTAGTGCAG”, with 4390 fluorescence intensity (a.u.).
For “CTATCAAATATCTGATGTAATCAATTTGTCACTAGACTACCGGAGTCACCTAGTGCAG” the value was 3230 fluorescence intensity (a.u.); for “ATATAGTTGTGATTAATTAGTGAGTAGAGTGTGATACCTGCGGAGTCACCTAGTGCAG”, 22100 fluorescence intensity (a.u.); for “ACATTACCAAATTTTAACAATGCCAAAATTTTGGTAAGGTCGGAGTCACCTAGTGCAG”, 3220 fluorescence intensity (a.u.).
Then “ACCTGATGAATTGCAGGATTAGAGATGAACTCGTACTTTTCGGAGTCACCTAGTGCAG”, with 9480 fluorescence intensity (a.u.); and “AGTCCATTAGCCTAGCAGATTGGAGTATTATTCGGGCCATCGGAGTCACCTAGTGCAG”, with 7010 fluorescence intensity (a.u.).
Regarding “TTTACTCTTAGCAATCAATTTAGCATATTTATCTATTCTGCGGAGTCACCTAGTGCAG”, the binding signal is 9900 fluorescence intensity (a.u.).
Then “CCTGATTTTGACAGTACACAAACACAATTCAAAACGGGCCCGGAGTCACCTAGTGCAG”, with 25600 fluorescence intensity (a.u.).

These data come from PMC7819943, “Rice protein-binding microarrays: a tool to detect cis-acting elements near promoter regions in rice”.
